This is an account of results in article PMC4634149.

No constants are given. Whether binding was seen depends on the method and setting. For some assays here: In cells and extracts the contact can be indirect. Some binding calls cover weakened binding; strength is not graded here. For some assays here: Sequences can lack the tags named with a protein.

The target of experiment [1] is T1, GST-AIP1 (full-length GST::AIP1) (Arabidopsis thaliana) (UniProt Q8H0V4).
T1 sequence: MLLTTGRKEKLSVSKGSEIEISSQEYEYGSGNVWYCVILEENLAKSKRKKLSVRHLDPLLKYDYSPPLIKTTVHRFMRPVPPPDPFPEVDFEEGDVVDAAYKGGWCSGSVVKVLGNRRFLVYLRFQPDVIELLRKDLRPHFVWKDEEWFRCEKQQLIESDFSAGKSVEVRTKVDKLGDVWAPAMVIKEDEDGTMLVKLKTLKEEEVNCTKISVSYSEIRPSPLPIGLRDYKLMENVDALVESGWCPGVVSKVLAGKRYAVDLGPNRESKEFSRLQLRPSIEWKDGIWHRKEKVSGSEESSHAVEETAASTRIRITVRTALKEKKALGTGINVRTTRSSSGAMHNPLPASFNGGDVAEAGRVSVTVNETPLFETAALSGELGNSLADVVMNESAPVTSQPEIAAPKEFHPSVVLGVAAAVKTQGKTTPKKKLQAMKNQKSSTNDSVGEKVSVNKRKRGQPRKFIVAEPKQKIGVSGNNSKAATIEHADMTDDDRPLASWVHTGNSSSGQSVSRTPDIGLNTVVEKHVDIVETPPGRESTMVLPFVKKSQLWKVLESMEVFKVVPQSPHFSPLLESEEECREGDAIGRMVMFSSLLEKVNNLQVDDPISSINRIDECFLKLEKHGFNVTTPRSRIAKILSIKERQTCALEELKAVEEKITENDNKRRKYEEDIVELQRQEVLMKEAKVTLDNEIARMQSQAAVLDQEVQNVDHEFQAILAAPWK
Kind of experiment: pull-down; in vitro GST pulldown of bacterially expressed recombinant GST-AIP1 with HIS-tagged proteins; immunoblot with anti-ABAP1 or anti-HIS.

Experiment [2] concerns the target T2, C-terminal portion of AIP1 containing the DUF724 domain (Arabidopsis thaliana) (UniProt Q8H0V4).
T2 sequence: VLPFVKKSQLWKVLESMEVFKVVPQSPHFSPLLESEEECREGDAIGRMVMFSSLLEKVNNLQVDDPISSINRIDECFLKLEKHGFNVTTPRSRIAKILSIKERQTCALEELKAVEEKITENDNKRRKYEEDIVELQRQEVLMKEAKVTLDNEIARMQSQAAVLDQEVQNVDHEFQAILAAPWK
Kind of experiment: two-hybrid; S. cerevisiae PJ694 co-transformed; selection on -leu/-trp/-his or -leu/-trp/-his/-ade, 3 days at 30 °C; C-terminal portion of AIP1 (DUF724) fused with GAL4 AD against GAL4 DBD fusions (Additional File 4); Additional File 10 calls the AIP1 portion the bait.

B1: HIS-AIP1 (protein, UniProt Q8H0V4 1-722)
chain: MLLTTGRKEKLSVSKGSEIEISSQEYEYGSGNVWYCVILEENLAKSKRKKLSVRHLDPLLKYDYSPPLIKTTVHRFMRPVPPPDPFPEVDFEEGDVVDAAYKGGWCSGSVVKVLGNRRFLVYLRFQPDVIELLRKDLRPHFVWKDEEWFRCEKQQLIESDFSAGKSVEVRTKVDKLGDVWAPAMVIKEDEDGTMLVKLKTLKEEEVNCTKISVSYSEIRPSPLPIGLRDYKLMENVDALVESGWCPGVVSKVLAGKRYAVDLGPNRESKEFSRLQLRPSIEWKDGIWHRKEKVSGSEESSHAVEETAASTRIRITVRTALKEKKALGTGINVRTTRSSSGAMHNPLPASFNGGDVAEAGRVSVTVNETPLFETAALSGELGNSLADVVMNESAPVTSQPEIAAPKEFHPSVVLGVAAAVKTQGKTTPKKKLQAMKNQKSSTNDSVGEKVSVNKRKRGQPRKFIVAEPKQKIGVSGNNSKAATIEHADMTDDDRPLASWVHTGNSSSGQSVSRTPDIGLNTVVEKHVDIVETPPGRESTMVLPFVKKSQLWKVLESMEVFKVVPQSPHFSPLLESEEECREGDAIGRMVMFSSLLEKVNNLQVDDPISSINRIDECFLKLEKHGFNVTTPRSRIAKILSIKERQTCALEELKAVEEKITENDNKRRKYEEDIVELQRQEVLMKEAKVTLDNEIARMQSQAAVLDQEVQNVDHEFQAILAAPWK
As to B1, the binding result in experiment [1] is “binds”.

B2: ORC2 (protein, UniProt Q38899 1-363)
chain: MEDIENIEEDEYGFSRNYFLAKELGGASKRSAHKLSDIHIVDEQELRETASTIEMKHSKEISELMSDYKTMYSKWVFELRCGFGLLMYGFGSKKALVEDFASASLTDYSVVVINGYLPSVNLKQVLLALAELLSELLKCKRKSSGSLSKGQETFPSRSMDDILSFLHGPQSGDKDCFICVVVHNIDGPALRDPESQQTLARLSSCSHIRLVASIDHVNAPLLWDKKMVHKQFNWLWHHVPTFAPYNVEGVFFPLVLAQGSTAQTAKTAAIVLQSLTPNGQNVFKILAEYQLSHPDEDGMPTDDLYSASRERFFVSSQVTLNSHLTEFKDHELVKTKRNSDGQECLNIPLTSDAIRQLLLDLNQ
Consider B2, for which the binding result in experiment [2] is reported as “no binding”.

B3: ORC6 (protein, UniProt Q9ZVH3 1-284)
chain: MDISDIGRKLSLDNNKLLIRKAAEIRRLCDAQFDSSIIGVGEICKAVICLEIAATRLQIIFDRQAAVKLSGMSEKAYSRSFNSLQNVIGIKIKLNVRELAVQFGCVRVIKSVQNVLSSYKERFLASLPASRRANADFTRPVFTAAAFYLCAKKQKLKVDKLRLIEVCGTSESEFSCVSTSMTDLCFDCVGISKEKKDAKDVKGNRDLLDVLPGKRRLEDGGYSSGDESSCYKRHKKMEEAKYEDWKSTVVNSIKKNPEKGTKRVIQASLNFPKKSETKELQVDS
For B3, the binding result in experiment [2] is given as “no binding”.

B4: ORC5 (protein, UniProt Q6EWX0 1-534)
chain: MPPKEESSKVTRRSTRSSASVTVENSEPIESHTPTIDDLTFGEESITIDAVLSNFPGRRSQIFDFIRLMGPLDCPTLPIMIYGGASTGKTSVVLQVLRHLNRPFVYSSCRTCYNPRILFESILNQSLLHRKCSLNGYSSAKRCDKPSDFVNLLREALSSVIKTLESTSETSRSDKPDEKPMGKMVYLILDNVDLIRDWDKGTIILQFLFSLYTVLKMPQLGIILISGLPPDVYYSNMGYTDPIPLYFPEYSEEDLRQIFLRNQPNRKLYSAFLDVVLKPFCRVTRRVEELSTTFSLLFRKFCEPLDDLGISPNEDMKRRLYSHLKPLIAHCLNEIFRVSSHPHDGETRGERRQKASYSSENREELEILDFHMSTSAKFLLLSAFLASRNPATLDASMFDSTGGMDNRKRKRKASEKSMEKKEIAEQEAVMKGPGSFPLERLLAIFQCIASVGDSSFGEEDEEEENTTGYDKENNNLMSDILLQVSSLCDANFLIKSGSCPLEGSIRYRSMVSEDLAQKVAKSLSFPLSKYLYRR
As for B4, the binding entry in experiment [2] was “no binding”.

B5: ORC4 (protein, UniProt Q6EWX1 1-417)
chain: MGKETPAEKSLNLIRGRLCDPSYVFRPLSASSDSNYSKLKFIVSTSITEGCNNSMLLLGPRGSGKAAVLDLGVGDLLEQFPDSVSVIRLNGLLHSDDNCAFKEIAKQLCMEHHLLFSKMASFDDNSQFIIAMLRACGLAHKTIIFVLDEFDMFAQGKQRLLYSLLDAMQSVTSQAVVVGISSRLDADQLLEKRVRSRFSHRKFLFLPPSREELDGLFVHLLSLPADSGFPSGYVSRFNDKIKNLTSDTRFKDILKTLFNANSTVNSFLKFIFCAVSLMNLESGLLSLENFKAALSSMQRQPKLEAVRDCSVLELYLLVCMRRLEVKEQSSYNFISVMKEYKAIHDSFHTSDYYAQNVCLRAFEHLRERQVICYAENRGQSQTGEYRLQKLLISASELHQGMRSHACCPAILLKLLDH
On to B5, for which, in experiment [2], the binding entry is “no binding”.

B6: CDT1a (protein, UniProt Q9SJW9 1-571)
chain: MSTPGSSRSIPFKSKKRLVMDSPSSKSQTGNPNPSSVALPTPEKPLENMLSRSRNRSVALSVKEIRQAAGSRRRSEDPVASSAKSRLFFDSSSSSPSKRKSSNKNAEKEKLPEKYENLGKFFEALDNSMLLSKLRGSKPTFSNISKQIEHLTERRFCYSHLAQIKHILPEAIEIKRVLIHDETTCCMKPDLHVTLNADAVEYNDKSKSESKKIALRKVFRARLADFVKAHPQGDEVPEEPLPEPFNRRKPVENSNVEVKRVSSLMEEMASIPASKLFSSPITSTPVKTTSSLAKPTSSQINIAPTPTKPTSTPAKQTLSEINILPTPVKPVSTLAKFPSTPAIIDSTPVITATPPEFASTPARLMSTSLAARPLKRSNGHTNPDDISADPPTKLVRRSLSLNFDSYPEDERTMDFTDDIPIDQVPEEDVSSDDEILSILPDKLRHAIKEQERKAIEDQNPAISLAKRRRKMIACLPKLFNVIHYLIQSIRRWVITKEELVHKIIAGHSDITDRKEVEEQLILLQEIVPEWMSEKKSSSGDVLVCINKLASPLTIRSRLEEENKQEMAPLLS
Consider B6, for which the binding result in experiment [2] is recorded as “no binding”.

B7: CDT1b (protein, UniProt Q9M1S9 1-486)
chain: MSSSSKIDSEKPVMVSESLFSTKTPIKTVKRQIFSSSPKPESVIKLPERFEILEEFFNGLDTAIRLLKLKGSSTTYANICPKIEYLTNRIFSYDHLAQMKHIYPEAIELKRVLKFVEDTCCMKPRLHIKLNTDAIVVEDTICGTKYMELRKVFHSKLVDFRKAHPKDEIPKELLPEPFNSPQRDSYSGIVSVGLGEPKLEVGGFDVHMEEIEQEEQDVNKVIPDSTLSHIESRIVETPVKDLSTPSKDLSTPIRLMSATPTLQLSKRCIELTPEGGDDNSLRSTNSLARGPSRSLNFDTFEEDAIEKDDIGNESDDKGINYEEDGLLQSVKGPSRSLNFDTLEEETIVKDDISNESGDEKSNYEGDNASDDDSLLQSMIERPKTEPEKHNLPQLVNLIHRVFHSTNRTVITKEELLYKIIANQINITDRREVEEQLSLMLQLVPDWISETKASSGDLLVRINKMSTAETVRARLEEATSHDISLIY
For B7, the binding entry in experiment [2] is recorded as “no binding”.

B8: ORC1a (protein, UniProt Q710E8 1-809)
chain: MASSLSSKAKTFKSPTKTPTKMYRKSYLSPSSTSLTPPQTPETLTPLRRSSRHVSRKINLGNDPIDLPGKESVEEINLIRKPRKRTNDIVVAEKSKKKKIDPEVSFSPVSPIRSETKKTKKKKRVYYNKVEFDETEFEIGDDVYVKRTEDANPDEEEEEDPEIEDCQICFKSHTNTIMIECDDCLGGFHLNCLKPPLKEVPEGDWICQFCEVKKSGQTLVVVPKPPEGKKLARTMKEKLLSSDLWAARIEKLWKEVDDGVYWIRARWYMIPEETVLGRQRHNLKRELYLTNDFADIEMECVLRHCFVKCPKEFSKASNDGDDVFLCEYEYDVHWGSFKRVAELADGDEDSDQEWNGRKEEEIDYSDEEIEFDDEESVRGVSKSKRGGANSRKGRFFGLEKVGMKRIPEHVRCHKQSELEKAKATLLLATRPKSLPCRSKEMEEITAFIKGSISDDQCLGRCMYIHGVPGTGKTISVLSVMKNLKAEVEAGSVSPYCFVEINGLKLASPENIYSVIYEGLSGHRVGWKKALQSLNERFAEGKKIGKENEKPCILLIDELDVLVTRNQSVLYNILDWPTKPNSKLVVLGIANTMDLPEKLLPRISSRMGIQRLCFGPYNHRQLQEIISTRLEGINAFEKTAIEFASRKVAAISGDARRALEICRRAAEVADYRLKKSNISAKSQLVIMADVEVAIQEMFQAPHIQVMKSVSKLSRIFLTAMVHELYKTGMAETSFDRVATTVSSICLTNGEAFPGWDILLKIGCDLGECRIVLCEPGEKHRLQKLQLNFPSDDVAFALKDNKDLPWLANYL
For B8, the binding entry in experiment [2] is recorded as “no binding”.
